The supplement of paper PMC10126150
Sequences with one replicate were seen in a single cluster, so their values are uncertain.

Test system: ATP
Assay: switch fluorescence ratio, 500 uM ATP over buffer (Cy3 cluster intensity, sum of 5 cycles each) (fold (ratio)); higher = stronger signal-on switching upon ATP binding; sequences stand for … in TCGTCGGCAGCGTCAGATGTGTATAAGAGACAGTTTTTTTTTTTTTTTTTTTTTTTTT…TC
Conditions: aptamer strand: ATP DNA aptamer (quencher-CACCTGGGGGAGTATTGCGGAGGAAGG + anchor), 100 nM annealed; ATP concentration: 500 uM; one replicate
Method in brief: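 Values give the fluorescence ratio for each switch-domain sequence, averaged from per-cluster ratios of summed target-cycle to summed buffer-cycle Cy3 intensity. The Cy3-labelled switching-strand clusters sat on a modified Illumina MiSeq flow-cell, were annealed to 100 nM quencher-labelled ATP aptamer, and were imaged in selection buffer, then after 15 min with 500 uM ATP at 22 °C. Five cycles ran with NaOH stripping and re-annealing between them, and clusters outside 100-1000 RFU were excluded.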
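Further: ATP exposure 15 min at 22 °C before imaging.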

Sequence	switch fluorescence ratio
AGCTACATCA	1.04
GGCGAGTGGG	0.991
GCCGTCCGCT	1.08
TGAGAAAAT	1.02
ACGCCCCCCA	1.96
TAGATATAGT	0.991
ATAGAGATGG	1.03
AAGCCAAGG	0.97
GCCATAGCGG	0.971
TGCCGCGGGG	1.04
GGTACGGGGC	1.02
TTATGCCTAA	0.959
TCAGGTCGAA	1.04
TATCTTGAGC	0.955
ACAACCGGAC	1.95
TCAAGCTATT	0.953
CGGGCTACAG	1.02
ACAATCGACA	1.06
CCGTCATAT	2.2
TCCGTGAAGT	1.03
CGCATACAGT	1.63
ATAATGGGAC	0.983
TCAGAAGGGA	1.02
GTGCGGACGG	0.982
ACAACCTAA	1.05
GACTGACTGT	1.09

Sequence	switch fluorescence ratio
GAGATATGGG	1.02
TGGTCAATGA	1.02
ATTTGCAGTC	1
GATCTAAGAA	1.02
GCGATCGGGA	1.01
AAGGACGT	1.09
ATTCAGGAGG	0.996
CGCACATTGG	1.09
GCGACTTATG	1.01
CGAGCGGGT	1.05
CTATAATCCT	1.1
CGACACCATT	1.55
TATTGTTCAT	1.01
GCCTTGGTCG	1.03
TCGTTGAGTC	1.05
GGCGAATTA	0.972
AACCGAAGGG	0.979
CGCCGGACAG	1.01
AGCTGATCCC	1.05
GACTAATAGA	1.02
CTCAACGGAC	1.41
TTTAGAAAC	0.988
GAATTTCGCT	1.04
GGAAGGGCTA	0.971
GTATCAAGCG	1.03
AAATCGTGGT	0.963

Sequence	switch fluorescence ratio
ATAAAAGGAA	0.963
TGGACATTGT	0.986
TTACGCGTTT	1.01
GAGTTAGGGT	0.981
TGATCATGTG	1.01
GTTAAAAATA	1.02
GTGTGGATAC	1.08
CCTTTCAAAA	1.04
CTAGCTCGCG	1.09
CTGTGGACAA	1.01
AGAGATAAGC	1.02
CCCGGTGCAG	1.08
CACTTCCATG	1.04
GCTCGTTGTT	0.983
AAATGGTCTG	1.04
CGATGGCACC	1.26
CTTGTTAGT	0.981
CAACATCAGC	1.01
CTTGGTAACG	0.997
TAAATTCAAT	0.976
CTGATGTCAT	1.03
CATATCCTCT	1.04
AAAACTCGAC	1.12
AACTCATACG	1.09
TAAGTCGTCA	1.01
GAGTGGGACT	0.994

Sequence	switch fluorescence ratio
TATAGCTATT	1.01
TCCCTGGTTC	1.01
ATTGCACA	1.01
AAGCGGAATA	1.05
AAGTCGGATT	0.941
TTTGCTAATC	1.06
TTACTGAGCC	1.05
GTTCATTACA	1.03
ATCCGACTGG	0.994
CATGTAGGAG	1.01
TTTTGAGTCT	0.94
GTAAGTTTAG	0.992
GGTGTGTAGC	0.991
TAGCCATAGA	1.36
TAGCTGGCTT	0.98
CTTAACATAG	0.984
CTTTCCCAAG	1.1
TAGCTACGAT	1.04
CTATCAGGAG	0.998
AATTCAGAAT	1.02
TATACGGGTA	1.03
TCGTTTTCTG	1.02
ACATAGTAGT	1.02
TCGAAAGACA	1.02
CAGGCAGGAA	0.98
GTTCTGTCCA	0.997

Sequence	switch fluorescence ratio
CTTGCACTTC	1.06
GCATATTTCA	0.99
TCAAAGTTAG	1.11
TTCTAATTTC	0.947
TCAGCATTAA	1.6
AATAGTTCAA	0.979
CGTTTCGTCA	1.01
GGCGGTTGTT	0.99
GAAGGGAAAT	0.981
ATGCAATGT	1.12
TGGGCGTGGT	1.01
CCTTGGCGAT	5.39
TTGCGACGG	0.977
TTTACGTTGT	1.05
GCGTAGCTTA	0.991
CGCTAAGTCT	1.36
TTACAAGATA	0.999
ATTTTATCTA	1.02
TGGCGTCATA	1
AGGGGCTCAG	1.03
ATGCTTCCTT	1.09
CTTACTCGAC	1.32
TAGTGTCCA	1.02
TTTGAGGGCA	1.04
TTGTTGATTC	0.976
CTAACCTGTG	1.05

Sequence	switch fluorescence ratio
AGCTAGAAGA	1.04
CGCATTCCCT	1.93
ATCTTTGAAC	1.02
AATTTGAGAG	0.978
TGGGGATGAA	1.02
TCTGACCCTG	0.971
GGCCAGCTGG	1.04
GACACGACTT	1.03
CATAATTAT	0.985
TCGTAGGAA	1.06
GTATATGCCG	1.11
TAATCATCTT	1.04
CTCTACCGGT	0.976
GTTAAATCGC	0.97
CCCCTGGGCC	1.13
ATCAGAGGAC	0.997
GGGGTCGACA	0.919
TAACTTCGG	1.02
CCCTAACTTT	1.03
CCGCAGTTA	4.31
TTATGTTATA	0.973
CGGTTGGCAT	0.99
TGGTCTATGT	0.963
ACGATTTGGA	1.03
CTGGAATTGT	0.981
GTGTTTGATA	1

Sequence	switch fluorescence ratio
AGGTATTGTT	0.989
ATCGGTTCGC	1.01
GAATGAGACG	0.993
ATTGGATATC	1.01
ACTCGCGGCC	1.6
TTGAGTCGAA	1.01
GCTTGTGTGG	0.981
GGTGTCTAGG	1
AGTCGTAAGA	0.998
AATACTCCTG	1.44
TGCCGTAAC	1.51
GCGGAGGGCT	1.01
CGGTCGGCTG	1.03
ATGCTACCAG	1.04
GGCTAGACTG	0.938
TAACCTGAAG	1.19
CATGCTTACG	0.999
GATTGAGGCT	1.03
TCATTCATGT	0.995
CATACATTTG	0.988
TCCTCCTGAG	1.9
ATTTGGGAAC	0.985
AGGTTTGGTG	0.984
GGTTTGCCCC	1.04
TGCTACTGGA	0.942
CAAGTACGTA	1.12

Sequence	switch fluorescence ratio
AGCACCTACG	1.56
TGTTTTGCAG	1.04
GTTGCCGGAC	1.01
ATCTGTATTG	0.957
ATCTGCGAGG	0.991
GCGTCCTCTA	1.06
ATACTAACCG	1.11
TGTATCTG	0.991
CTATCAGG	0.984
CAGTCGATGT	0.988
GGTTTTATTC	0.978
TATGTAGTCT	1.07
AAACGATATG	1.03
CCTTCCCCAT	2.65
TAGCCGATAA	1.03
GCCTTACCA	1.04
CCTCACACTT	1.15
ATGAAATTGG	1.03
AATTTCCACA	1.02
